This note sets out measurements from the supplement of paper PMC8728848.

Test in all cases: glycan array binding signal (z-score within array); higher = stronger binding
Settings in all cases: glycan notation: IUPAC condensed, linker removed

One assay addresses Neu5Ac(a2-3)Gal. A digest of the protocol:
(§1)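 Glycan array data were curated from 3228 arrays in the Consortium for Functional Glycomics database and kept only where the protein sequence was available. Glycan names were converted to IUPAC-condensed notation, and columns mapping to the same glycan were averaged. The binding signal is a within-array Z-score, averaged across arrays of the same protein sequence at different concentrations or buffers and across linkers. Negative Z-scores can be read as non-binding.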

Assay [1] addresses Neu5Ac(a2-3)Gal(b1-3)GalNAc. In short, it runs like this:
as §1

Assay [2] concerns the target Neu5Ac(a2-3)Gal(b1-3)GalNAc(b1-3)Gal(a1-4)Gal(b1-4)Glc. In short, it runs like this: as §1
The target of assay [3] is Neu5Ac(a2-3)Gal(b1-3)GalNAc(b1-4)[Neu5Ac(a2-3)]Gal(b1-4)Glc. A digest of the protocol: as §1
Assay [4] has as its target Neu5Ac(a2-3)Gal(b1-3)GalNAc(b1-4)[Neu5Ac(a2-8)Neu5Ac(a2-3)]Gal(b1-4)Glc. In short, it runs like this: as §1
Assay [5] has as its target Neu5Ac(a2-3)Gal(b1-3)GalNAc6S. A digest of the protocol:
as §1

The target in assay [6] is Neu5Ac(a2-3)Gal(b1-3)GlcNAc. In short, it runs like this:
as §1

Assay [7] concerns the target Neu5Ac(a2-3)Gal(b1-3)GlcNAc(b1-2)Man. In short, it runs like this:
as §1

In assay [8] the target is Neu5Ac(a2-3)Gal(b1-3)GlcNAc(b1-2)Man(a1-3)[GlcNAc(b1-4)][Neu5Ac(a2-3)Gal(b1-3)GlcNAc(b1-2)Man(a1-6)]Man(b1-4)GlcNAc(b1-4)GlcNAc. In short, it runs like this:
as §1

In assay [9] the target is Neu5Ac(a2-3)Gal(b1-3)GlcNAc(b1-2)Man(a1-3)[Neu5Ac(a2-3)Gal(b1-3)GlcNAc(b1-2)Man(a1-6)]Man(b1-4)GlcNAc(b1-4)GlcNAc. In short, it runs like this:
as §1

In assay [10] the target is Neu5Ac(a2-3)Gal(b1-3)GlcNAc(b1-3)Gal(b1-3)GlcNAc. In short, it runs like this: as §1
Assay [11] has as its target Neu5Ac(a2-3)Gal(b1-3)GlcNAc(b1-3)Gal(b1-4)GlcNAc. In short, it runs like this: as §1
In assay [12] the target is Neu5Ac(a2-3)Gal(b1-3)GlcNAc(b1-3)GalNAc. A digest of the protocol: as §1
Assay [13] concerns the target Neu5Ac(a2-3)Gal(b1-3)GlcNAc(b1-4)Gal(b1-4)Glc. In short, it runs like this:
as §1

Assay [14] has as its target Neu5Ac(a2-3)Gal(b1-3)GlcNAc(b1-6)GalNAc. A digest of the protocol:
as §1

Assay [15] has as its target Neu5Ac(a2-3)Gal(b1-3)GlcNAc6S. A digest of the protocol: as §1
For assay [16], the target named is Neu5Ac(a2-3)Gal(b1-3)[Fuc(a1-4)]GlcNAc. In short, it runs like this:
as §1

The target in assay [17] is Neu5Ac(a2-3)Gal(b1-3)[Fuc(a1-4)]GlcNAc(b1-3)Gal(b1-3)[Fuc(a1-4)]GlcNAc. In short, it runs like this:
as §1

Assay [18] concerns the target Neu5Ac(a2-3)Gal(b1-3)[Fuc(a1-4)]GlcNAc(b1-3)Gal(b1-4)[Fuc(a1-3)]GlcNAc. In short, it runs like this:
as §1

Assay [19] deals with Neu5Ac(a2-3)Gal(b1-3)[GlcNAc(b1-6)]GalNAc. A digest of the protocol: as §1
Assay [20] deals with Neu5Ac(a2-3)Gal(b1-3)[Neu5Ac(a2-6)]GalNAc. A digest of the protocol: as §1
Assay [21] addresses Neu5Ac(a2-3)Gal(b1-3)[Neu5Ac(a2-6)]GlcNAc(b1-3)[Fuc(a1-3)[Gal(b1-4)]GlcNAc(b1-6)]Gal(b1-4)Glc. In short, it runs like this: as §1

The list shows a part of the results.

B1: LFA (Limax flavus) (protein)
chain: MSVLFLAASFLLLASFELVAAQGCPRQDPGDWIVIQRRLNADVNFYRGWADYKHGFGDLRCNFWLGNEKIHQLTSHGRYKLRVEFTFNNKSYFAEYSTFKILGEADKYKLQVGGYSGNAGDALTFHNGMAFSTNDRDNDADSIDCAKVYHGAWWYKTCHESNLNGKWGSKKYGEGLNWKAKTTFTATATSSLLKIKALK
B1: the “glycan array binding signal (z-score)” value was -0.178 with Neu5Ac(a2-3)Gal; 0.174 in [1]; 0.046 in assay [2]; -0.259 in [3]; -0.184 in assay [4]; -0.266 in assay [5]. Also, the “glycan array binding signal (z-score)” value is -0.15 in assay [6]; -0.17 in assay [7]; 0.001 in [8]; -0.006 in [9]; -0.139 in [10]; -0.22 in [11]. The “glycan array binding signal (z-score)” value in assay [12] was -0.113; in assay [13], -0.271; in assay [14], -0.335; in assay [15], 0.704; in assay [16] it was -0.355; in assay [17], -0.228. Further, the “glycan array binding signal (z-score)” value is -0.306 in [18], -0.335 in [19], -0.187 in assay [20] and -0.374 in assay [21].
